Test results taken from the DeepSol protein solubility set.

Test: soluble on expression in E. coli; label from the status in PepcDB or PDB records

Substance | soluble on expression in E. coli
AIAPKSKRDKKISLTKTTKKGLEAKQNLIEELRKCADIYRYVFVFSVENMRNNKLKDIRTAWRHSRFFFGKNKVMMIALGKGPTDEYKDNLHKLSRFLRGEVGVLFTNKTKDEVQEYFGNFKEVDYARAGNTASMAVTLDEGPLDQFPHSMEPQLRQLGLPTALKKGAVTLIKDFEVCKEGDTLTPEQARILKLFGFEMAEFKLSIKCMWNSESGEFEKLTDGDDDDETKEAEDEDSEGEEGSE | soluble
MGSDKIHHHHHHMITIKKGLDLPIAGKPAQVIHSGNAVNQVAILGEEYVGMRPSMKVREGDVVKKGQVLFEDKKNPGVIFTAPASGTITAINRGEKRVLQSVVINVEGDEKITFAKYSTEQLNTLSSEQVKQNLIESGLWTALRTRPFSKVPSIESEASSIFVNAMDTNPLAADPSVVLKEYSQDFTNGLTVLSRLFPSKPLHLCKAGDSNIPTADLENLQIHDFTGVHPAGLVGTHIHFIDPVGIQKTVWHINYQDVIAVGKLFTTGELYSERVISLAGPQVKEPRLVRTTIGANLSQLTQNELSAGKNRVISGSVLCGQIAKDSHDYLGRYALQVSVIAEGNEKEFFGWIMPQANKYSVTRTVLGHFSKKLFNFTTSENGGERAMVPIGSYERVMPLDILPTLLLRDLIVGDTDGAQELGCLELDEEDLALCSFVCPGKYEYGSILRQVLDKIEKEG | not soluble
MISGILASPGIAIGKALLLQEDEIVLNTNTISDDQVEAEVERFYTARDKSSAQLEVIKQKALETFGEEKEAIFEGHIMLLEDEELEEEILALIKKEKMSADNAIHTVIEEQATALESLDDEYLKERATDIRDIGTRFVKNALGMHIVSLSEIDQEVVLVAYDLTPSETAQINLNYVLGFACDIGGRTSHTSIMARSLELPAIVGTNDITKKVKNGDTLILDAMNNKIIVNPTQAQIEEAKAVKAAFLAEKEELAKLKDLPAETLDGHRVEVCGNIGTVKDCDGIIRNGGEGVGLYRTEFLFMDRDALPTEEEQYQAYKEVAEAMNGQAVIIRTMDIGGDKDLPYMDLPKEMNPFLGWRAVRISLDRREILRDQLRGILRASAHGKLRVMFPMIISVEEIRELKNAIEEYKAELRTEGHAFDENIEIGVMVETPAAAAIAHHLAKEVSFFSIGTNDLTQYTLAVDRGNEMISHLYNPLSPAVLTVIKQVIDASHAEGKWTGMCGELAGDERATLLLLGMGLDEFSMSGISIPKVKKVIRNANYAEIKAMAEEALALPTAAEIEACVDKFIAAKA | not soluble
AHHHHHHGSAKLAVIRIRGRVNVKRPVRDTLAMLRLHRVNHCVIVDDTPSYLGMLQKAKDYITWGEINAETLAKLIRKRGRLIGNKPVTDEYVKEKLGMTIEEFAQKVVNGEMSLKDLPNLKPVFRLHPPRGGFRGSKKRSFKEGGALGYRGEKINELIERML | soluble
RPDFCLEPPYAGACRAAAARYFYNAKAGLCQTFAYGACAAKRNNFKSAEDCLRTCGGA | soluble
MKDIDTLISNNALWSKMLVEEDPGFFEKLAQAQKPRFLWIGCSDSRVPAERLTGLEPGELFVHRNVANLVIHTDLNCLSVVQYAVDVLEVEHIIICGHYGCGGVQAAVENPELGLINNWLLHIRDIWFKHSSLLGEMPQERRLDTLCELNVMEQVYNLGHSTIMQSAWKRGQKVTIHGWAYGIHDGLLRDLDVTATNRETLEQRYRHGISNLKLKHANHK | soluble
GMSTRLKIVTIHQEPFVYVKPTMSDGTCKEEFTVNGDPVKKVICTGPNDTSPGSPRHTVPQCCYGFCIDLLIKLARTMNFTYEVHLVADGKFGTQERVNNSNKKEWNGMMGELLSGQADMIVAPLTINNERAQYIEFSKPFKYQGLTILVKKGTRITGINDPRLRNPSDKFIYATVKQSSVDIYFRRQVELSTMYRHMEKHNYESAAEAIQAVRDNKLHAFIWDSAVLEFEASQKCDLVTTGELFFRSGFGIGMRKDSPWKQNVSLSILKSHENGFMEDLDKTWVRYQECDS | soluble
VVPWSPPQSNWNPWTSSNIDEGPLAFATPEQISMDLKNELMYQLEQDHDLQAILQERELLPVKKFESEILEAISQNSVVIIRGATGCGKTTQVPQFILDDFIQNDRAAECNIVVTQPRRISAVSVAERVAFERGEEPGKSCGYSVRFESILPRPHASIMFCTVGVLLRKLEAGIRGISHVIVDEIHERDINTDFLLVVLRDVVQAYPEVRIVLMSATIDTSMFCEYFFNCPIIEV | soluble
MSTKEKLISHVMKEEPVGSRSKVTVVGVGMVGMASAISILLKDLCDELAMVDVMEDKLKGEVMDLQHGSLFLKTKIVGDKDYSVTANSKVVVVTAGARQQEGESRLNLVQRNVNIFKFIIPNIVKYSPNCILMVVSNPVDILTYVAWKLSGFPRHRVIGSGTNLDSARFRHLIGEKLHLHPSSCHAWIVGEHGDSSVPVWSGVNVAGVSLQGLNPQMGTEGDGENWKAIHKEVVDGAYEVIKLKGYTSWAIGMSVADLVESIIKNMHKVHPVSTLVQGMHGVKDEVFLSVPCVLGNSGLTDVIHMTLKAEEEKQLQKSAETLWGVQKELTL | soluble
DIVMTQSPDSLAVSLGERATINCKSSQSVLYSSNSKNYLAWYQQKPGQPPKLLIYWASTRESGVPDRFSGSGSGTDFTLTISSLQAEDVAVYYCAQYYSTPYSFGQGTKLEIKR | soluble
MSLGSDVRDLNALLPAVPSLGGGGGCALPVSGAAQWAPVLDFAPPGASAYGSLGGPAPPPAPPPPPPPPPHSFIKQEPSWGGAEPHEEQCLSAFTVHFSGQFTGTAGACRYGPFGPPPPSQASSGQARMFPNAPYLPSCLESQPAIRNQGYSTVTFDGTPSYGHTPSHHAAQFPNHSFKHEDPMGQQGSLGEQQYSVPPPVYGCHTPTDSCTGSQALLLRTPYSSDNLYQMTSQLECMTWNQMNLGATLKGHSTGYESDNHTTPILCGAQYRIHTHGVFRGIQDVRRVPGVAPTLVRSASETSEKRPFMCAYPGCNKRYFKLSHLQMHSRKHTGEKPYQCDFKDCERRFSRSDQLKRHQRRHTGVKPFQCKTCQRKFSRSDHLKTHTRTHTGEKPFSCRWPSCQKKFARSDELVRHHNMHQRNMTKLQLALEGHHHHHH | not soluble
MPRSLKKGVFVDDHLLEKVLELNAKGEKRLIKTWSRRSTIVPEMVGHTIAVYNGKQHVPVYITENMVGHKLGEFAPTRTYRGHGKEAKATKKK | soluble
MDGSATPGPGQAHLKSNSMIYICGECHAENEIKPKDAIRCRECGYRILYKKRCRKLMVYDAR | soluble
MDAMSKASYVKFEVPQDLADKVLEAVRKAKESGKIKKGTNETTKAVERGQAKLVIIAEDVQPEEIVAHLPLLCDEKKIPYVYVSSKKALGEACGLQVATASAAILEPGEAKDLVDEIIKRVNEIKGKTSS | soluble
AHHHHHHGSPVDAWIREEVEIPEGVEVTVEGYKVKVKGPKGELEREFFWPGIQIFTEDGNVVIYKDFPRRKDVAIARTFAAHIRNMIKGVTEGFTYKLKVVYSHFPISVKVQGDEVIIENFLGEKAPRKAKILPGVTVKVRGQEIIVEGIDKEAVGQTAANIEQATRITKWDRRIFQDGIYIVEKAGKPITF | not soluble
MVRFTGLSLKQTQAIEVLKGHISLPDVEVAVTQSDQASISIEGEEGHYQLTYRKPHQLYRALSLLVTVLAEADKVEIEEQAAYEDLAYMVDCSRNAVLNVASAKQMIEILALMGYSTFELYMEDTYQIEGQPYFGYFRGAYSAEELQEIEAYAQQFDVTFVPCIQTLAHLSAFVKWGVKEVQELRDVEDILLIGEEKVYDLIDGMFATLSKLKTRKVNIGMDEAHLVGLGRYLILNGVVDRSLLMCQHLERVLDIADKYGFHCQMWSDMFFKLMSADGQYDRDVEIPEETRVYLDRLKDRVTLVYWDYYQDSEEKYNRNFRNHHKISHDLAFAGGAWKWIGFTPHNHFSRLVAIEANKACRANQIKEVIVTGWGDNGGETAQFSILPSLQIWAELSYRNDLDGLSAHFKTNTGLTVEDFMQIDLANLLPDLPGNLSGINPNRYVFYQDILCPILDQHMTPEQDKPHFAQAAETLANIKEKAGNYAYLFETQAQLNAILSSKVDVGRRIRQAYQADDKESLQQIARQELPELRSQIEDFHALFSHQWLKENKVFGLDTVDIRMGGLLQRIKRAESRIEVYLAGQLDRIDELEVEILPFTDFYADKDFAATTANQWHTIATASTIYTT | soluble
MGKDYYQTLGLARGASDEEIKRAYRRQALRYHPDKNKEPGAEEKFKEIAEAYDVLSDPRKREIFDRYGEEGLKGSGPSGGSGGGANGTSFSYTFHGDPHAMFAEFFGGRNPFDTFFGQRNGEEGMDIDDPFSGFPMGMGGFTNVNFGRSRSAQEPARKKQ[gap - about 150 residues]PERIPQTSRTVLEQVLPILEHHHHHH | soluble
QVQLQQSGAEVKKPGSSVKVSCKASGGTFSSYTISWVRQAPGQGLEWMGGITPILGIANYAQKFQGRVTITTDESTSTAYMELSSLRSEDTAVYYCARDTVMGGMDVWGQGTTVTVSSASTKGPSVFPLAPSSKSTSGGTSALGCLVKDYFPEPVTVSWNSGALTSGVHTFPAVLQSSGLYSLSSVVTVPSSSLGTQTYICNVNHKPSNTKVDKKVEPKSCDKTSPLFVHHHHHHGDYKDDDDKG | soluble
